# Residue numbers refer to the chain shown, from its start. This is one part of the list.
# T1: RBFOX1 RRM RbFoxmut (Fox-RRM*) (Homo sapiens, UniProt Q9NWB1 109-208, R118D;E147R;N151S;E152T)
# T1 sequence: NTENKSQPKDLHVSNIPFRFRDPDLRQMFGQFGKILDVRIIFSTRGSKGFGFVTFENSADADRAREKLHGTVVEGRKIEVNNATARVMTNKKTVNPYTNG
# B1: GUUAAGU (DNA:RNA)
# RNA: GGGAGACCGGAAUUCAGAUUGUCCGUUAAGUUUAAAUCCCGUCGUAGCCACCA
# DNA 1: CAATCTGAATTCCGGTCTCCC
# DNA 2: TGGTGGCTACGACGGGATT
# B2: CUGUGAC (DNA:RNA)
# RNA: B1 RNA with G25C, U27G, A28U, A29G, G30A, U31C
# DNA 1: CAATCTGAATTCCGGTCTCCC
# DNA 2: TGGTGGCTACGACGGGATT
# B3: AAACCGA (DNA:RNA)
# RNA: B1 RNA with G25A, U26A, U27A, A28C, A29C, U31A
# DNA 1: CAATCTGAATTCCGGTCTCCC
# DNA 2: TGGTGGCTACGACGGGATT
# B4: AUCCGGG (DNA:RNA)
# RNA: B1 RNA with G25A, U27C, A28C, A29G, U31G
# DNA 1: CAATCTGAATTCCGGTCTCCC
# DNA 2: TGGTGGCTACGACGGGATT
# B5: CCAGAAG (DNA:RNA)
# RNA: B1 RNA with G25C, U26C, U27A, A28G, G30A, U31G
# DNA 1: CAATCTGAATTCCGGTCTCCC
# DNA 2: TGGTGGCTACGACGGGATT
# B6: CUAAGCC (DNA:RNA)
# RNA: B1 RNA with G25C, U27A, A29G, G30C, U31C
# DNA 1: CAATCTGAATTCCGGTCTCCC
# DNA 2: TGGTGGCTACGACGGGATT
# B7: UGGGUAA (DNA:RNA)
# RNA: GGGAGACCGGAAUUCAGAUUGUCCUGGGUAAUUAAAUCCCGUCGUAGCCACCA
# DNA 1: CAATCTGAATTCCGGTCTCCC
# DNA 2: TGGTGGCTACGACGGGATT
# B8: UGACCCC (DNA:RNA)
# RNA: B7 RNA with G27A, G28C, U29C, A30C, A31C
# DNA 1: CAATCTGAATTCCGGTCTCCC
# DNA 2: TGGTGGCTACGACGGGATT
# B9: UAGGGUG (DNA:RNA)
# RNA: B7 RNA with G26A, U29G, A30U, A31G
# DNA 1: CAATCTGAATTCCGGTCTCCC
# DNA 2: TGGTGGCTACGACGGGATT
# B10: UACCCAC (DNA:RNA)
# RNA: B7 RNA with G26A, G27C, G28C, U29C, A31C
# DNA 1: CAATCTGAATTCCGGTCTCCC
# DNA 2: TGGTGGCTACGACGGGATT
# B11: CUCAAAA (DNA:RNA)
# RNA: B1 RNA with G25C, U27C, G30A, U31A
# DNA 1: CAATCTGAATTCCGGTCTCCC
# DNA 2: TGGTGGCTACGACGGGATT
# B12: CGACCGA (DNA:RNA)
# RNA: B7 RNA with U25C, G27A, G28C, U29C, A30G
# DNA 1: CAATCTGAATTCCGGTCTCCC
# DNA 2: TGGTGGCTACGACGGGATT
# B13: GCACGGU (DNA:RNA)
# RNA: B1 RNA with U26C, U27A, A28C, A29G
# DNA 1: CAATCTGAATTCCGGTCTCCC
# DNA 2: TGGTGGCTACGACGGGATT
# B14: CGGAGUG (DNA:RNA)
# RNA: B7 RNA with U25C, G28A, U29G, A30U, A31G
# DNA 1: CAATCTGAATTCCGGTCTCCC
# DNA 2: TGGTGGCTACGACGGGATT
# B15: GAUCGUG (DNA:RNA)
# RNA: B1 RNA with U26A, A28C, A29G, G30U, U31G
# DNA 1: CAATCTGAATTCCGGTCTCCC
# DNA 2: TGGTGGCTACGACGGGATT
# B16: GGAUCAC (DNA:RNA)
# RNA: B7 RNA with U25G, G27A, G28U, U29C, A31C
# DNA 1: CAATCTGAATTCCGGTCTCCC
# DNA 2: TGGTGGCTACGACGGGATT
# B17: AUGGUAC (DNA:RNA)
# RNA: B7 RNA with U25A, G26U, A31C
# DNA 1: CAATCTGAATTCCGGTCTCCC
# DNA 2: TGGTGGCTACGACGGGATT
# B18: GACAGCC (DNA:RNA)
# RNA: B1 RNA with U26A, U27C, A29G, G30C, U31C
# DNA 1: CAATCTGAATTCCGGTCTCCC
# DNA 2: TGGTGGCTACGACGGGATT
# B19: AUUAUGA (DNA:RNA)
# RNA: B1 RNA with G25A, A29U, U31A
# DNA 1: CAATCTGAATTCCGGTCTCCC
# DNA 2: TGGTGGCTACGACGGGATT
# B20: GGUGUGC (DNA:RNA)
# RNA: B1 RNA with U26G, A28G, A29U, U31C
# DNA 1: CAATCTGAATTCCGGTCTCCC
# DNA 2: TGGTGGCTACGACGGGATT
# B21: GCGCUUU (DNA:RNA)
# RNA: B1 RNA with U26C, U27G, A28C, A29U, G30U
# DNA 1: CAATCTGAATTCCGGTCTCCC
# DNA 2: TGGTGGCTACGACGGGATT
# B22: UCAACAC (DNA:RNA)
# RNA: B7 RNA with G26C, G27A, G28A, U29C, A31C
# DNA 1: CAATCTGAATTCCGGTCTCCC
# DNA 2: TGGTGGCTACGACGGGATT
# B23: UGUUGCG (DNA:RNA)
# RNA: B7 RNA with G27U, G28U, U29G, A30C, A31G
# DNA 1: CAATCTGAATTCCGGTCTCCC
# DNA 2: TGGTGGCTACGACGGGATT
# B24: UUUUAUC (DNA:RNA)
# RNA: B1 RNA with G25U, A28U, G30U, U31C
# DNA 1: CAATCTGAATTCCGGTCTCCC
# DNA 2: TGGTGGCTACGACGGGATT
# B25: UAAAGGA (DNA:RNA)
# RNA: B1 RNA with G25U, U26A, U27A, A29G, U31A
# DNA 1: CAATCTGAATTCCGGTCTCCC
# DNA 2: TGGTGGCTACGACGGGATT
# B26: UGCAGAU (DNA:RNA)
# RNA: B7 RNA with G27C, G28A, U29G, A31U
# DNA 1: CAATCTGAATTCCGGTCTCCC
# DNA 2: TGGTGGCTACGACGGGATT
# B27: GGCUGAC (DNA:RNA)
# RNA: B7 RNA with U25G, G27C, G28U, U29G, A31C
# DNA 1: CAATCTGAATTCCGGTCTCCC
# DNA 2: TGGTGGCTACGACGGGATT
# B28: AUGUUUG (DNA:RNA)
# RNA: B7 RNA with U25A, G26U, G28U, A30U, A31G
# DNA 1: CAATCTGAATTCCGGTCTCCC
# DNA 2: TGGTGGCTACGACGGGATT
# B29: AAACAUU (DNA:RNA)
# RNA: B1 RNA with G25A, U26A, U27A, A28C, G30U
# DNA 1: CAATCTGAATTCCGGTCTCCC
# DNA 2: TGGTGGCTACGACGGGATT
# B30: UUCCCCU (DNA:RNA)
# RNA: B1 RNA with G25U, U27C, A28C, A29C, G30C
# DNA 1: CAATCTGAATTCCGGTCTCCC
# DNA 2: TGGTGGCTACGACGGGATT
# B31: CCCCAAU (DNA:RNA)
# RNA: B1 RNA with G25C, U26C, U27C, A28C, G30A
# DNA 1: CAATCTGAATTCCGGTCTCCC
# DNA 2: TGGTGGCTACGACGGGATT
# Biological target: T1, RBFOX1 RRM RbFoxmut (Fox-RRM*)
# Experiment: EMSA; HiTS-Eq, 1 nM pool, 10 min; buffer printed only for the single-RNA assays: 10 mM Tris pH 7.5, 150 mM NaCl, 3.4 mM EDTA, 0.001% NP-40, 30 C
# Conditions: tags: His6 N-terminal (pET28a); label: 5' 32P
# Procedure, shortened: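 Purified wild-type or mutant RbFox RRM at increasing concentrations was equilibrated with 1 nM of 5′-radiolabelled RNA carrying 7 randomized nucleotides for 10 min in 50 µL. Unbound RNA was separated by 8% native PAGE and sequenced. Relative association constants came from read-count changes of each RNA species compared with the control reaction, normalised to the cognate motif.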
row,Binder,binding signal
1,B1,0.128 KA relative to UGCAUGU
2,B2,0.0946 KA relative to UGCAUGU
3,B3,0.0755 KA relative to UGCAUGU
4,B4,0.0531 KA relative to UGCAUGU
5,B5,0.116 KA relative to UGCAUGU
6,B6,0.12 KA relative to UGCAUGU
7,B7,0.124 KA relative to UGCAUGU
8,B8,0.0384 KA relative to UGCAUGU
9,B9,0.149 KA relative to UGCAUGU
10,B10,0.102 KA relative to UGCAUGU
11,B11,0.0819 KA relative to UGCAUGU
12,B12,0.0812 KA relative to UGCAUGU
13,B13,0.289 KA relative to UGCAUGU
14,B14,0.198 KA relative to UGCAUGU
15,B15,0.181 KA relative to UGCAUGU
16,B16,0.0978 KA relative to UGCAUGU

row,Binder,binding signal
1,B17,0.142 KA relative to UGCAUGU
2,B18,0.0467 KA relative to UGCAUGU
3,B19,0.122 KA relative to UGCAUGU
4,B20,0.15 KA relative to UGCAUGU
5,B21,0.0897 KA relative to UGCAUGU
6,B22,0.0639 KA relative to UGCAUGU
7,B23,0.208 KA relative to UGCAUGU
8,B24,0.0874 KA relative to UGCAUGU
9,B25,0.06 KA relative to UGCAUGU
10,B26,0.127 KA relative to UGCAUGU
11,B27,0.113 KA relative to UGCAUGU
12,B28,0.626 KA relative to UGCAUGU
13,B29,0.0578 KA relative to UGCAUGU
14,B30,0.0625 KA relative to UGCAUGU
15,B31,0.0644 KA relative to UGCAUGU
